# In ChEMBL document CHEMBL4888484, “Replenishing the malaria drug discovery pipeline: Screening and hit evaluation of the MMV Hit Generation Library 1 (HGL1) against asexual blood stage Plasmodium falciparum ,using a nano luciferase reporter read-out” (2022):
# Hit rate of the full screen: of about 150,000 compounds, about 540 (0.36%) showed an effect of 50% or more. The list shows a part of the results.
# Test system: Plasmodium falciparum
# Assay: Primary screen in NF54 nanoGlo assay, in single point, at 2uM, 72h; a lower Z score goes with more inhibition
# Format: functional, Erythrocyte
# Conditions: timepoint 72 hour
SMILES,% Inhibition [%],Z score
COc1ccc(CN(Cc2cc(=O)c3cc(F)ccc3[nH]2)CC(C)C)cc1OC,-4,0.68
O=C1NCCC[C@@H]1Oc1ccc(C(F)(F)F)cn1,-12,1.57
CCN1CCCc2cc(C(=O)N3CCC(C)CC3)sc21,-12,2.17
CC(C)CN1CC2(CCN(C(=O)CCc3nc4ccccc4[nH]3)CC2)CC1=O,13,-1.65
O=c1[nH]c2ccccc2n1-c1ccccc1F,-16,2.15
c1ccc(Cn2c(NCc3ccncc3)nc3ccccc32)cc1,14,-1.92
Cc1nn(CC(C)C)c(C)c1S(=O)(=O)NC(=O)c1ccoc1,-7,0.63
Cc1cnn(CC(=O)N[C@@H]2CC=CCC2)c1,0,0.03
COCCN(C(C)=O)c1nc(COc2cccc(F)c2F)cs1,-16,1.49
Cc1ccc(Cl)c2ccc(NC[C@@]3(CCO)CCOC3)nc12,-4,0.66
Cn1cnc2c(C(=O)N3CC(Cc4ccoc4)C3)ccnc21,-16,1.59
CC1CC(N2CCC(c3nc4cc(Cl)ccc4o3)CC2)C(=O)O1 (configuration not stated),-28,2.81
Cc1c(CNC(=O)CN2CCN(C)C(=O)C2)sc2ccc(Cl)cc12,-21,3.18
CCOc1ncc(C)cc1NC(=O)N1CCOCC2(CC2)C1,-1,0.08
C#CCNC(=O)CN(CC)C1CCCCC1,0,0.01
CCCc1nn2c(c1-c1ccc(OC)c(S(=O)(=O)Nc3ccc(C)c(C)c3)c1)NC(=O)CCC2=O,10,-1.17
COc1ccc(Cc2n[nH]c(NC(=O)Cn3cc(OC)c(=O)cc3C)n2)cc1,-7,0.87
Cc1nccc(CNC(=O)CC2(C)CCCCC2)n1,-10,1.9
Cc1ccc(CNC(=O)CCC(=O)N2C[C@@H]3CCCN3c3ccccc32)o1,-6,0.69
Cn1cccc1-c1noc([C@H]2CCN(C(=O)c3ccc4ncccc4c3)C2)n1,-21,2.71
Cc1ccsc1C(=O)NC[C@H]1Cc2ccccc2O1,-9,1.35
Cc1c(F)cccc1C(=O)N1CCN(CCN2CCCC2)C[C@H](O)C1,-7,1.25

SMILES,% Inhibition [%],Z score
COCCn1cc(NC(=O)N(C)C2CCCC(C)C2)cn1 (configuration not stated),-11,1.05
C[C@@H](Cn1ccnc1)NC(=O)c1ccc2c(c1)CCCC2,3,-0.59
COCCN(C)C(=O)c1nn(Cc2ccc(F)cc2)c2c1COCC2,-10,1.21
O=C(N[C@H](c1ccccc1)c1nc2ccccc2[nH]1)c1[nH]nc2c1CCC2,-9,1.16
Cc1sc(-c2nc(-c3ccc(F)cc3)no2)cc1S(=O)(=O)N1CCOCC1,-7,0.83
O=C(Cn1nccn1)NCC[C@H]1CCOC1,-5,0.5
CN(C)C(=O)C1C[C@@H]2OCC[C@@H]2N1C(=O)CCS(=O)(=O)C1CCCC1 (some centres not stated),3,-0.51
CC(C)CN(CC(C)C)c1nc(-c2cccnc2)nc2ccccc12,-10,1.29
C[C@@]1(C(N)=O)CCCCN1Cc1csc(-c2ccccn2)n1,-9,1.07
CC[C@H](NC(=O)N1CCC2(CC1)C(=O)N(C)C(=O)N2C)c1cc(C)ccn1,-9,1.47
C=C[C@@H]1CCCCN1C(=O)C1CC(F)(F)C1,-11,1.14
Cc1ccc2nc(NC(=O)c3ccc(NC(=O)CCS(=O)(=O)c4cccs4)cc3)sc2c1,-11,1.27
COCCC1(C(=O)N2CC3CCCC3C2)CCC1 (configuration not stated),-22,1.98
CC(C)c1cnc(-c2ccc(NC(=O)N[C@H]3CCN(C)C3=O)cc2)o1,1,-0.13
COCCCCC(=O)N(C)c1cccc(C(C)C)c1,-4,0.67
COc1ccc2cc1OCCn1cc(nn1)CO[C@H]1CN(Cc3nc(C(F)(F)F)no3)C[C@@H]1NC2=O,-3,0.55
CC[C@H](C)CN(CC)C(=O)c1ccc(C(=O)O)cc1F,-1,0.15
CCCn1ncc(CN(C)Cc2csc(C)n2)c1C,-7,1.3
CC(C)c1ccnc(N2CCN(C(=O)c3ccnc(C4CC4)n3)CC2)n1,14,-1.73
C[C@H]1CN(Cc2nnc(C3CC3)n2C)CCN1C(=O)OC(C)(C)C,-6,0.97
CNC(=O)C1(C(=O)N2CCN(CC(C)(C)O)CC2)CCC1,-8,1.07
COc1ccc(C2=NN(C(=O)CN(CCN3CCOCC3)C(=O)C(C)C)[C@H](c3ccc4c(c3)OCO4)C2)cc1,-8,1.13

SMILES,% Inhibition [%],Z score
O=C(C1CCC(F)(F)CC1)N1CCCO1,4,-0.57
O=C(NC1CCN(C(=O)c2cc3c(s2)CCCCCC3)CC1)c1ccncc1,-31,3.65
CC(=O)N1CCCN(c2nnc(C)c3c(C)n(-c4ccc(C)cc4)nc23)CC1,-10,1.49
CC1CN(C(C)C)CC1NS(=O)(=O)Cc1ccon1 (configuration not stated),-3,0.45
O=C(c1ccc2c(c1)OCCCO2)N1CCN(S(=O)(=O)c2cccc(F)c2)CC1,-10,1.9
O=C(Cc1csc(-c2ccc(Cl)s2)n1)NC[C@H]1CCCN1,3,-0.46
Cc1ccc(CCN2C(=O)CC[C@@H]3CN(c4ncccc4F)CC[C@@H]32)o1,-6,0.71
O=C(Nc1cc(C(F)(F)F)n[nH]1)c1cc2n(n1)CCCO2,-11,1.52
Cc1ccc([C@H](CCO)NC(=O)c2cnc(C3CC3)[nH]c2=O)cc1,-7,1.34
Cn1ncc2c(N3CCC(Cn4nc(C(C)(C)C)ccc4=O)CC3)ncnc21,10,-1.3
CC(C)C[C@H]1C(=O)N2C[C@@H](N(C)C)C[C@H]2CN1C(=O)COCc1ccccc1,-25,2.19
CC(C)c1nsc(NCCCOCC2CC2)n1,-12,1.6
FC(F)(F)c1ccc(-n2nnnc2COc2nnc(-c3ccccc3)o2)cc1,2,-0.45
CCCC[C@H](N)C(=O)N(C)CC1CCOCC1,-11,1.2
FC(F)CN1CCC(NCC=Cc2ccccc2)CC1,-7,0.89
Nc1nc(-c2ccc(F)c3cccnc23)c2nc[nH]c2n1,-3,0.5
COc1cccc(NC(=O)CN2CN(c3ccccc3)C3(CCN(C(=O)Nc4ccccc4OC)CC3)C2=O)c1,-10,1.3
CCC[C@H]1CN(c2noc(-c3ccccc3)n2)C[C@@H]1N(C)C,-6,1.08
Cn1ncc(Br)c1CC(=O)N1CCC(=O)N2CCC[C@@H]21,-5,0.6
Cc1cc(N2CCC[C@H](CC(F)(F)F)C2)ccn1,1,-0.14
Cc1nc2ccc(/C=C/C=C/c3ccccc3)cc2s1,-2,0.2
O=S(=O)(C[C@H]1CCCCO1)NCCc1c[nH]c2ccc(F)cc12,-2,0.38

SMILES,% Inhibition [%],Z score
CC(Cn1cc(Br)cn1)C(=O)NCC1CCCO1 (configuration not stated),0,-0.04
CC(=O)N1CCN(C(=O)c2coc(CN(CCc3c[nH]c4ccccc34)Cc3ccc(F)cc3F)n2)CC1,3,-0.57
Cn1ncc(NC(=O)Cc2ccc(Cl)cc2)c(N2CCOCC2)c1=O,-6,1.21
CC[C@H](NC(=O)N(C)CC1(N(C)C)CCC1)c1nccs1,3,-0.36
COc1nc2c(cc1CNC(=O)c1cc(C)c[nH]1)C(=O)N(C1CCCC1)C2,6,-1.2
Cn1cc(CCNC(=O)C2=NN(c3ccccc3)[C@H](C(N)=O)C2)cn1,35,-4.71
O=C(Cc1ccccc1)N1CC(OCc2cccc(F)c2)C1,-21,1.91
CN(CC(N)=O)C(=O)Cc1c(F)ccc(Br)c1F,-6,1.02
CC(C)Cn1cncc1CN1CCc2[nH]nc(-c3ccc(F)c(F)c3)c2C1,-6,0.8
Cc1cc(-n2cnnc2-c2ccc(O)cc2)n(C)n1,-9,1.35
CC1CCCC1NC(=O)c1n[nH]c(=O)c2ccccc12 (configuration not stated),-18,1.6
COC[C@@H](O)CCNC(=O)Nc1cc(Br)c(F)cc1C,-29,3.37
Cc1cc(C(=O)N2CC(S(=O)(=O)N3CCc4ccccc43)C2)on1,-13,1.2
O=C(NCCc1ccccc1F)c1cn(CCC2CCCCC2)nn1,-13,1.87
O=C(Cn1cnc2c1CCCC2)N1CCOCC(F)(F)C1,-6,0.79
CS(=O)(=O)N(CC1CCC1)c1ccccc1,-8,1.29
CC(C)n1ccc(CCNC(=O)c2ccc(N3CC=CC3)cc2)n1,-3,0.4
CN(C(=O)CCc1cccc(F)c1)S(C)(=O)=O,0,-0.02
CN(C)C(=O)CN1CC[C@H](NC(=O)c2ccc(C(F)(F)F)cc2)[C@@H](O)C1,-8,1.53
COc1ccccc1Nc1nc(N)nc(COC(=O)[C@H]2CC(=O)N(c3ccc(C)cc3)C2)n1,-2,0.22
